Test results as given in the supplement of paper PMC3334620.
Whole data set: some 33,000 sequences, median “E-score (-0.5 to 0.5)” near -0.013, cut for the highest 2% near 0.3. The list shows a part of the results.

These sequences were tested against T1, Msn1 (UniProt P22148) (assay: PBM E-score (8-mer binding enrichment) (E-score (-0.5 to 0.5)); higher = stronger / more preferred TF binding; most listed sequences are background and not binding sites). Conditions: protein concentration: 200 nM; construct: GST-full length.
T1 sequence: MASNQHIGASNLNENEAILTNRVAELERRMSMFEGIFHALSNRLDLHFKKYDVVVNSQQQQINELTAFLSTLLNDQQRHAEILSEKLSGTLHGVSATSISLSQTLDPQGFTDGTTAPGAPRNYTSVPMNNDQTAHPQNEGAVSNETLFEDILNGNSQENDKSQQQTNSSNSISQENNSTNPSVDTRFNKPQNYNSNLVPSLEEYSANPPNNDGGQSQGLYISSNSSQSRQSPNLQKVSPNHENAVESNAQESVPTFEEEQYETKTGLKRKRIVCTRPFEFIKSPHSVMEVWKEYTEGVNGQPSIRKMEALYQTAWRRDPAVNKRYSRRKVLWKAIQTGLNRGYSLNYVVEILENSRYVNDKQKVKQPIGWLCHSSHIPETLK
Protocol: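 Universal 'all 10-mer' protein binding microarrays (Agilent AMADID 015681) probed with GST-tagged S. cerevisiae TFs (full-length or DBD) made by in vitro transcription/translation (PURExpress), about 100-200 nM. Bound TF was detected with fluorescent anti-GST. Each ungapped 8-mer (which stands for itself and its reverse complement) is scored by the PBM enrichment score (E-score), a modified Wilcoxon-Mann-Whitney statistic from -0.5 to +0.5, computed with the Universal PBM Analysis Suite. Scale: above 0.35 generally sequence-specific binding.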

Sequence	PBM E-score
CCGGGCCC	-0.103
AGCACGTC	0.125
ACGGCGGA	-0.0934
CTTGACTC	-0.0921
ACTTACGG	0.0817
ATGAGGCC	-0.333
GCTGTGGA	0.0167
AAATGGCC	-0.0844
ACAGACGG	-0.138
AGCCGATA	-0.0688
GGTCTGAA	0.0803
TGATCTAA	0.00017
GTAGAAAA	0.172
GAATCGCC	-0.293
TTGGTAAA	-0.0902
CCCGTGAA	0.00561
AGGCTTCC	-0.0153
CGGATGTA	0.0259
AGGAGGCA	-0.295
CATAGGTC	0.0822
GGGCCCCA	-0.317
AGAAGCCC	-0.295
CGCAGACG	0.0312
ATCCTGCA	0.0555
AGTCCTCA	0.202

Sequence	PBM E-score
CAAGTACG	0.0164
ATTGAATG	0.101
GACCGATC	-0.0571
AAGGTCCA	-0.0265
GTGTTGAA	-0.0141
CCGCGCAG	0.108
CCGTATCG	-0.0414
GGGCCACA	-0.153
CCGTCGTC	-0.1
ATTCGCGC	0.0908
CGCTTAAC	0.132
CAGACGAG	-0.0297
CCCTACTC	-0.0505
AGTGACAC	0.225
AATCTACA	0.058
CCCCCTTA	-0.404
AGCTTGAC	-0.0883
GAATCACA	-0.123
AAAGCTCT	-0.114
AACCTATC	0.0159
AGCGGAGG	-0.217
CTTGGCTC	-0.228
AGATACCG	0.0533
ACGTAGGC	-0.0908
GGCGTTAC	-0.266

Sequence	PBM E-score
ACCTTAGG	-0.201
ACGAAGGG	-0.12
CCGTCACA	-0.121
TACTTTCA	0.11
CTTACATA	-0.0116
CAATCGTC	0.0432
CTAATCGA	0.0391
ACTCTGAA	0.0886
AATACCGA	0.022
CGTGACTA	-0.054
CAATGCAG	-0.0326
CTTACAGA	0.013
AGCGCAGC	-0.115
AGATAAGA	0.159
CCCGATGA	0.132
TATGGCGA	-0.162
ATAGAGAA	0.0764
ACAGGCAC	-0.227
CAGTCAAA	-0.00344
CGCATAGA	0.0575
CACTTGAA	0.179
AAACGCTT	-0.0136
TCTTAACA	0.0991
AGTTAACC	-0.0919
AGGAGCAT	0.0181

Sequence	PBM E-score
CGAGACGC	0.0344
AATACATT	0.152
AAGCGTGT	-0.0464
AGTTGTTA	0.195
ATCCGCCG	0.163
AGCCAGTG	-0.0204
TCGGGTCA	0.213
CGCTATAA	-0.0164
AGTACTAT	0.11
CCAAATGC	-0.0167
ATTACTCA	0.0602
ACTATGCC	-0.0678
AACACTCT	-0.0785
CCCTGCGG	-0.258
AAAAGTGG	0.12
ACAATGTC	0.452
CCTATGAG	-0.0887
AAGACGTC	-0.00027
AAAAACGC	0.122
AGATGACG	-0.00302
AGAGCGAC	0.0642
AACTGTCA	0.158
ACCTGCAG	-0.129
AGTTGCGA	0.00126
AGCTAGTC	-0.0933

Sequence	PBM E-score
CATCTCGC	-0.0978
CCCTCGAG	-0.11
ACCCTTGA	-0.194
ACAGTGTA	0.0175
ACAATGCG	-0.0228
GAGTTGCC	-0.0596
TAAAGTGA	0.0769
ACTCCAAG	-0.125
ACGGTAAA	0.0303
GTCTAGCA	0.108
TTTGCAAA	0.04
TCACGTCA	0.031
GAAGTGCA	-0.07
AGTGGGGC	-0.434
GCCCTAGC	-0.136
CATATTTA	0.232
GCGGTCAA	0.157
CCGCGGTC	-0.125
AAGATAAT	0.0866
CGAGCATC	-0.112
AGCCGTAC	-0.022
AGAACGAA	0.134
TCTGGGCA	-0.122
ACAAACAG	0.276
AGCCGACT	-0.0873

Sequence	PBM E-score
CGCGCCGA	0.105
CCCGGCCA	-0.18
GATAAGAA	0.14
TGAAGACA	0.328
CAACTAAG	-0.197
GCTGCGCC	-0.192
CAAGTCTC	-0.0227
CAGCTGCA	-0.181
TTACGTAA	0.0547
AGCCCTTC	-0.317
ACGTCCAC	0.2
AAAGGTAT	0.0611
AGCAGTCG	-0.146
ACCGAAAT	0.205
AGCCACCC	-0.224
AGCATAAA	-0.102
GAACCAAA	-0.0792
CGGATACC	0.0244
ACCTAAGC	-0.00657
CGTTCTCC	-0.072
AGATCAGA	-0.0985
AGTAGGAC	0.268
ACGTTAAG	0.0909
ACTGATAG	-0.0146
TGCCACCA	-0.305

Sequence	PBM E-score
AGAAGCAC	-0.172
ATCTAACG	-0.111
GGTGCTCA	-0.183
AATCTAGA	0.121
CGGACCGC	0.0155
TACTATCA	0.206
CATATACC	0.00804
GTTTCGCA	-0.183
GGGGCAGA	-0.0916
ACCCGCGT	-0.0692
AATCACTC	-0.0494
CATTCTAA	0.192
ATCAGAGA	-0.0186
ACGCACCA	-0.0921
ACTAAGCA	-0.131
CCTGCTGC	-0.123
ACTGAGTG	-0.015
GAAGTGTC	0.3
AGGTTTCA	-0.0133
ACGGGAAC	-0.0805
ACGTGTTA	0.0969
AGCGTTAA	-0.101
